{"source": "paper PMC7819943", "about": "“Rice protein-binding microarrays: a tool to detect cis-acting elements near promoter regions in rice”", "note": "The other results are listed elsewhere or left out."}
{"biological_target": "T1, OsWOX13 (Oryza sativa, UniProt Q5QMM3 1-267)", "T1 sequence": "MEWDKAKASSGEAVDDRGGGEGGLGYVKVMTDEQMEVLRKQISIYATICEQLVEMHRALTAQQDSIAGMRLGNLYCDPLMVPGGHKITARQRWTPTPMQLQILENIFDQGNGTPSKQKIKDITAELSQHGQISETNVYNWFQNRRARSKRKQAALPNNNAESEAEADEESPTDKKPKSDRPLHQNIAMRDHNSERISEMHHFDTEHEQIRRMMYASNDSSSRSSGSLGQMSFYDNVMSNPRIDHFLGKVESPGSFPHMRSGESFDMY", "experiment": "protein-binding microarray (RPBM); PBS, 2% BSA, 51.3 ng/ul salmon testes DNA, 50 uM zinc acetate, 200 nM TF, 25 C, 1 h; high values mean tight binding", "conditions": "protein: recombinant; tags: N-terminal polyhistidine and DsRed monomer fusion (pET32a); label: CyDye5-dUTP incorporated in the synthesized complementary strand; 3' TTTTT single-stranded linker to array surface; dsDNA, one strand shown", "summary_of_the_method": "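Binding signal is reported as fluorescence intensity per feature (arbitrary units) from an Axon 4000B scanner. Incubation used 200 nM of each Ni–NTA-purified, N-terminally polyhistidine- and DsRed-fused transcription factor from E. coli BL21-CodonPlus on a double-stranded custom Agilent array for 1 h at 25 °C, with 50 µM zinc acetate in the buffer, followed by washing.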"}
{"sequence": "GAGTAACAGAATTGTATTTGAATTTTGTCGGGGCCGATTACGGAGTCACCTAGTGCAG", "binding signal": "5860 fluorescence intensity (a.u.)"}
{"sequence": "TAGAATTAGTTGATAGCTCTTTCATTGTTTTGGTCAACTCCGGAGTCACCTAGTGCAG", "binding signal": "3630 fluorescence intensity (a.u.)"}
{"sequence": "GATGATGACAAACATGTTAGCGCCGTCCCTCTAGCCTCCTCGGAGTCACCTAGTGCAG", "binding signal": "7730 fluorescence intensity (a.u.)"}
{"sequence": "ATACTATCACAAATGAAATTAATTGAAATGAAGAAAGAAACGGAGTCACCTAGTGCAG", "binding signal": "9850 fluorescence intensity (a.u.)"}
{"sequence": "TGTAAACTGATTGAAGTGAACATTTAAACCTGACGTGATTCGGAGTCACCTAGTGCAG", "binding signal": "38800 fluorescence intensity (a.u.)"}
{"sequence": "TACGATACTTGCTAATTAATAGGCATTTTATACCTATGTACGGAGTCACCTAGTGCAG", "binding signal": "4300 fluorescence intensity (a.u.)"}
{"sequence": "TATATGAAATTATTATTTGATTTCTTGATCATATAATGTACGGAGTCACCTAGTGCAG", "binding signal": "13300 fluorescence intensity (a.u.)"}
{"sequence": "AATTAATTATGCGCTAAGTAGGAAAGGTCCCAACTAACAGCGGAGTCACCTAGTGCAG", "binding signal": "14100 fluorescence intensity (a.u.)"}
{"sequence": "TATATTCAATTATTGATTTGAAACTAATTTAGTATTATAACGGAGTCACCTAGTGCAG", "binding signal": "16300 fluorescence intensity (a.u.)"}
{"sequence": "AAAATCAAACCACCATAGATAGATAGAAGAACAAGAAGAGCGGAGTCACCTAGTGCAG", "binding signal": "3920 fluorescence intensity (a.u.)"}
{"sequence": "ACCTCATCATCTAATCTTATGTAGCAAATTTAGGAGCAGTCGGAGTCACCTAGTGCAG", "binding signal": "3680 fluorescence intensity (a.u.)"}
{"sequence": "AGTAATTAGCCACACTGCATATTAGCCACGACACCACAAGCGGAGTCACCTAGTGCAG", "binding signal": "11200 fluorescence intensity (a.u.)"}
{"sequence": "TTCACAATTCTCAATTAGTTATGTCCAATTAAGATCCACCCGGAGTCACCTAGTGCAG", "binding signal": "8900 fluorescence intensity (a.u.)"}
{"sequence": "AAGAATTAATTAAACTCAAAGTGGTAGAAGAACTATTTAGCGGAGTCACCTAGTGCAG", "binding signal": "13900 fluorescence intensity (a.u.)"}
{"sequence": "TTTAATTAATCATACTCTAATCCATAGCTCTTTTACTTGCCGGAGTCACCTAGTGCAG", "binding signal": "26900 fluorescence intensity (a.u.)"}
{"sequence": "AATGTTACAAATTGAAAATATACCGTCAAGATTGTATATGCGGAGTCACCTAGTGCAG", "binding signal": "8400 fluorescence intensity (a.u.)"}
{"sequence": "AGTAAACAATGATTAATTATGTTGTTAATTATAAGAAACTCGGAGTCACCTAGTGCAG", "binding signal": "20700 fluorescence intensity (a.u.)"}
{"sequence": "TCTAATAGCAATAGATGACTGGTGGTGACGCGTAACGTAGCGGAGTCACCTAGTGCAG", "binding signal": "15600 fluorescence intensity (a.u.)"}
{"sequence": "ATTCGTCTATCTTTATCAATTTGCGATGTAAATCGTCTGCCGGAGTCACCTAGTGCAG", "binding signal": "5520 fluorescence intensity (a.u.)"}
{"sequence": "CCTTAACTAATCAAAACCGGTCACAATAGATCCTTCGGTGCGGAGTCACCTAGTGCAG", "binding signal": "13500 fluorescence intensity (a.u.)"}
{"sequence": "ATAGATGATTTGCCGCTAGTAGTGGGCTATATGGGCAGTCCGGAGTCACCTAGTGCAG", "binding signal": "24500 fluorescence intensity (a.u.)"}
{"sequence": "ACAACACATCATTGACACACAACTATACCAACGTTCTATCCGGAGTCACCTAGTGCAG", "binding signal": "5730 fluorescence intensity (a.u.)"}
{"sequence": "ATATATATATATATATACAGATATACACACACACACACCGCGGAGTCACCTAGTGCAG", "binding signal": "15300 fluorescence intensity (a.u.)"}
{"sequence": "AAAATATTTTACATAATTATAATTTATTATTGAGTGAATTCGGAGTCACCTAGTGCAG", "binding signal": "11200 fluorescence intensity (a.u.)"}
{"sequence": "CAGAATGGACCTAATTAACGACCACCATCAGCAGAAAATGCGGAGTCACCTAGTGCAG", "binding signal": "12100 fluorescence intensity (a.u.)"}
{"sequence": "GGGCCTGGTCCTGATTGGACTTCCTTATCTGTCTATCACACGGAGTCACCTAGTGCAG", "binding signal": "10700 fluorescence intensity (a.u.)"}
{"sequence": "TTAGATTAGAGGAAGATGGGGTTGGTACGTGCGTTGGTAACGGAGTCACCTAGTGCAG", "binding signal": "7960 fluorescence intensity (a.u.)"}
{"sequence": "ATAACTGAACTGATTTGTTTCAGGATAAGTAAGAATAACACGGAGTCACCTAGTGCAG", "binding signal": "6950 fluorescence intensity (a.u.)"}
{"sequence": "AAAGTAGTTCAATTAGAAATAAATTAAAAGAACTGGTAAACGGAGTCACCTAGTGCAG", "binding signal": "6810 fluorescence intensity (a.u.)"}
{"sequence": "GGCATGTATCCAATTAACGCTTACAACTATAGGTACCGGTCGGAGTCACCTAGTGCAG", "binding signal": "3430 fluorescence intensity (a.u.)"}
{"sequence": "ACTCTTTAACTGATTTGGGTAATCAAACTAAATGTTCACTCGGAGTCACCTAGTGCAG", "binding signal": "17200 fluorescence intensity (a.u.)"}
{"sequence": "AATATATTAATTGATTACGAGAGTTTTACTTCAGTGGCAACGGAGTCACCTAGTGCAG", "binding signal": "25500 fluorescence intensity (a.u.)"}
{"sequence": "ATTGAGTCAATCCACACTTTATTAGCACATTGGCCCACACCGGAGTCACCTAGTGCAG", "binding signal": "3510 fluorescence intensity (a.u.)"}
{"sequence": "TTACAAGAGATTGACAATTCACTTCATCTTTGATTAGATGCGGAGTCACCTAGTGCAG", "binding signal": "33800 fluorescence intensity (a.u.)"}
{"sequence": "ATTAATTACGATATATACAGAGTGCTGTGTGCTCTTGACTCGGAGTCACCTAGTGCAG", "binding signal": "12900 fluorescence intensity (a.u.)"}
{"sequence": "TCTTACTTAACATATTTAATAATCATGGTTCTTTCAATAACGGAGTCACCTAGTGCAG", "binding signal": "3300 fluorescence intensity (a.u.)"}
{"sequence": "TTAATTAGACTGGGAGGCCTGTTCTTGTTCTTTAATTTAGCGGAGTCACCTAGTGCAG", "binding signal": "35500 fluorescence intensity (a.u.)"}
{"sequence": "ATCTTGGTAAATTGGTCCTTGGTTACTCCGATTTGTTGGACGGAGTCACCTAGTGCAG", "binding signal": "5000 fluorescence intensity (a.u.)"}
{"sequence": "TATTATAATGTTGATTTGATTTGACTAATAATTAAGGCCACGGAGTCACCTAGTGCAG", "binding signal": "30100 fluorescence intensity (a.u.)"}
{"sequence": "GTTGGAGAGAAATTAGGATTGGATTGATTCATATCGAGCTCGGAGTCACCTAGTGCAG", "binding signal": "13200 fluorescence intensity (a.u.)"}
{"sequence": "AACAAATTACAAAACCCAGCTCTGATCTTGCACGCGCTGACGGAGTCACCTAGTGCAG", "binding signal": "6620 fluorescence intensity (a.u.)"}
{"sequence": "TCTGATAGAAGCTTGACTGAACATTGAACAGTTTTAGTCTCGGAGTCACCTAGTGCAG", "binding signal": "43900 fluorescence intensity (a.u.)"}
